PubChem BioAssay AID1159614 (National Center for Advancing Translational Sciences (NCATS), 2016)
Hit rate of the full screen: of about 45,000 compounds, about 65 (0.1%) were called active. Calls come from the whole dose curve; as a rule, active = well fitted activation curve with a large enough effect; inconclusive = small, poorly fitted or top-dose-only effect; inactive = no such curve, though single readings can be large or run the other way. The list shows a part of the results.

biological target: Galactocerebrosidase (Homo sapiens) (UniProt P54803); test: A Novel Cell-Based Assay to Identify Small Molecules for B -Galactocerebrosidase; settings: 145M-Twi-hGALC-G270D cells (Twitcher mouse brain line with human GALC G270D), HMU-beta-Gal fluorescence, 48 h; series mostly up to 57.5 µM; activation: at the top concentration; note: 0% is about no effect; nearly all actives have a fitted effect of over 65% in size
Chain of UniProt P54803 (P54803 whole entry, looked up): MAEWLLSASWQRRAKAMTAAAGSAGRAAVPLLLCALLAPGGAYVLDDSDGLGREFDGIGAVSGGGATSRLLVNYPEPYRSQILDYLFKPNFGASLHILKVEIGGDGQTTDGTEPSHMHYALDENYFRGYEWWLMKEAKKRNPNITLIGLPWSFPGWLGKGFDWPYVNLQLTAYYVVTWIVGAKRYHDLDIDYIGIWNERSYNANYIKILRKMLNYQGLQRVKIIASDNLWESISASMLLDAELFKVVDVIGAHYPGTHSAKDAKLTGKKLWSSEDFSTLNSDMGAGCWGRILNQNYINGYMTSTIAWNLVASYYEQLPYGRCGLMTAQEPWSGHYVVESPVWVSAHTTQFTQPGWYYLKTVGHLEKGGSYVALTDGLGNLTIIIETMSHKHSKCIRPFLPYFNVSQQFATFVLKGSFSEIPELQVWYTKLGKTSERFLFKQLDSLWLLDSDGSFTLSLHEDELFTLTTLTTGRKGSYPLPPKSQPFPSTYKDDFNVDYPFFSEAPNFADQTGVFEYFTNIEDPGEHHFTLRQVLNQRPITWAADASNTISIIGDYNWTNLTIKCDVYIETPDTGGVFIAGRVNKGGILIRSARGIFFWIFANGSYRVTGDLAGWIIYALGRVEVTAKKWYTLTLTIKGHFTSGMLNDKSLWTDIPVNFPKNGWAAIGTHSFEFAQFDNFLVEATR
Description: Lysosomal storage diseases (LSDs) are caused by genetic mutations in genes encoding proteins important for normal lysosomal function. Globoid cell leukodystrophy (GLD), mostly known as Krabbe disease, is a prototype of the neurological LSDs caused by deficiency of beta-galactocerebrosidase (GALC). In brain specimens of GLD patients, psychosine levels are substantially elevated. At elevated concentrations, psychosine becomes cytotoxic to neuronal cells, particularly to oligodendrocytes (OLG), neural cells responsible for myelin formation. Therefore, the biochemical disturbances in GLD are manifested by different degrees of brain demyelination resulting in a broad spectrum of neurological manifestations. Most of the FDA-approved therapies are based on enzyme replacement therapeutic (ERT) agents, which treat non-neurological symptoms of Gaucher disease, Fabry disease, few mucopolysaccharidoses and Pompe disease. Unfortunately, in GLD, a primarily neurological LSD, ERT agents, as large molecular weight molecules unable to cross the blood-brain barrier, which makes this an inefficacious therapeutic approach. In GLD, increasing the residual GALC activity just above the critical threshold (~10% of wild type enzymatic activity), the cytotoxic levels of psychosine will be reduced, avoiding the OLGs apoptosis and the subsequent demyelination process. This will translate in disease stabilization and amelioration of GLD patient symptoms.
A cell-based assay in 1,536-well plate format was developed to implement a quantitative high-throughput screening (qHTS) assay using GLD-disease relevant cells to identify small molecules that produce enhancements of the residual enzymatic activity levels of mutants GALC found and prevalent in GLD patients. Compounds that are active may therefore have some therapeutic application for GLD. After the treatment of live cells for a determined period, using a fluorescent GALC specific substrate, the mutant residual GALC activity is measured. This cell-based qTHS assay was used to screen part of the MLPCN library for small molecule able to increase the mutant GALC enzymatic activity. In this assay, increased fluorescent signal corresponds to enhanced levels of mutant GALC residual enzymatic activity. Activation is the desired outcome for this assay.
NIH Chemical Genomics Center [NCGC]
NIH Molecular Libraries Probe Centers Network [MLPCN]
Assay Submitter (PI): Gustavo Maegawa MD,PhD, University of Florida, Gainesville, FL
2)#Two cell lines were established for the assay: 145M-Twi-hGALC-G270D (brain-derived Twitcher cell line stably expressing human GALC-G270D) and 145M-Twi-hGALC-WT (same 145M-Twi stably expressing human GALC wild type). The Twitcher is the murine C57B/6 model for GLD with naturally occurring homozygous nonsense GALC mutation. The 145M-Twi cell line was established at Maegawa lab (Ribbens J et al 2014).
a.#Media: DMEM/F12 (1:1) with 10% fetal bovine-serum (FBS) with penicillin/streptomycin (PS-1X - 100 I.U./mL of penicillin+100 ug/mL of streptomycin).
b.#The 6-Hexadecanoylamino-4-methylumbelliferyl-b-D-galactoside (HMU-B-gal) substrate was prepared as per Wiederschain et al 1992. Using 20-mL borosilicate tubes, 2.20 mg of HMU-b-Gal was added in each tube to prepare substrate-film with a final air-nitrogen stream evaporation to remove all diluent solvents.
c.#The HMUb-Gal substrate buffer consists of 0.2 M Na2HPO4 (sodium phosphate dibasic)/ 0.1 M Citric Acid with the pH adjusted to 5.2 using HCl. Sodium Azide at 0.02% and Sodium Taurocholate (NaTC) at 1 mg/mL were added to this substrate buffer.
d.#The HMU-b-Gal stopping buffer consist of 0.5 M NaHCO3 (sodium bicarbonate) /0.5 M Na2CO3 (sodium carbonate). […] Triton X-100 at 0.25% was added.
4)#Preparation of HMU-b-Gal substrate tubes
Adding 18.6 mL of the HMUb-Gal substrate buffer to each 20-mL tube (2.20 mg of HMU-b-Gal) will reach a concentration of 0.2 mM. Vortex well the tube until the solution is fully homogenized (clear cloudy solution). […]

activation, inactive:
COC(=O)c1sccc1S(=O)(=O)N1CCN(c2cccc(C)c2C)CC1 4.26%, O=C(CSc1n[nH]c(-c2ccccc2)n1)N1CCCCC1 -14.9%, CCCCC(CC)COC(=O)/C=C/c1ccc(OC)cc1 (stereo unspecified) -13.1%, CCOC(=O)Cn1c(=O)oc2cc(S(=O)(=O)NCc3ccc(F)cc3)ccc21 -13.2%, COc1ccc(CNC(=O)C(=O)NCC(c2ccc3c(c2)OCO3)N2CCOCC2)cc1 (stereo unspecified) -15.6%, O=C1CC(c2ccccc2)Cc2[nH]c(=O)c(-c3nc(-c4cccc(Cl)c4)cs3)cc21 (stereo unspecified) -18.8%, Cc1noc(/C=C/N(C)C)c1S(=O)(=O)N1CCCC(C(=O)Nc2cccc(F)c2)C1 (stereo unspecified) -11.6%, CCN(CC)CCc1nc(-c2ccccc2)no1 -18%, CCOc1ccc(-c2cc3c(=O)n(Cc4nc(-c5cccc(OC)c5OC)oc4C)ccn3n2)cc1Cl -6.47%, Cc1ccc(CNC(=O)c2nc(SCc3cccc(C)c3)ncc2Cl)cc1 15%, CCc1ccc(-n2nc3ccc(NC(=O)c4cc5ccccc5o4)cc3n2)cc1 -15.7%, Cc1ccc(CNC(=O)c2cn(C)c3ccc(S(=O)(=O)N(C)C4CCCCC4)cc3c2=O)cc1 -8.82%, Cc1ccccc1Nc1c(-c2ccsc2)nc2c(C)cccn12 -9.18%, O=C(NCc1cccc(Cl)c1)c1cccn1-c1nnc(N2CCCC2)s1 -6.47%, O=C(NCCc1ccccc1)c1ccc(Cn2c(SCc3ccc(F)cc3)nc3cccnc32)cc1 16.7%, Cc1cc(C)c(Cn2c3ccccc3c3cnn(CC(=O)NCCCc4ccccc4)c(=O)c32)c(C)c1 -1.04%, COc1ccc(OC)c(S(=O)(=O)N2Cc3ccccc3CC2C(=O)Nc2ccc(C(C)=O)cc2)c1 (stereo unspecified) -5.57%, CCC(=O)N1CCc2cc(S(=O)(=O)CCC(=O)N3CCN(c4cccc(C)c4)C(C)C3)ccc21 (stereo unspecified) -8.53%, CCN(Cc1ccc(OC)cc1)c1ccc(-c2nc(-c3ccncc3)no2)cc1[N+](=O)[O-] -39.3%, Cc1ccccc1NC(=O)Cn1c(=O)n(Cc2ccc3c(c2)OCO3)c(=O)c2oc3ccccc3c21 5.44%, Cc1cc(C)cc(C(=O)Nc2cc(C(F)(F)F)ccc2N2CCN(c3ccccc3)CC2)c1 -12%, Cc1ccc(-c2cn3cccc(C)c3n2)cc1NS(=O)(=O)c1ccccc1 -20.4%, Cc1ccc(CN(Cc2ccco2)c2cnc(S(C)(=O)=O)nc2C(=O)Nc2ccc(Br)cc2)o1 -10.3%, CC(C)Cn1c(=O)c2ccccc2n2c(-c3ccc(Br)cc3)nnc12 -12%, CCCCN(c1ccccc1)c1ncnc2c1cnn2-c1ccc(Cl)cc1 -15.4%, COc1ccc(OC)c(CCNC(=O)CCn2c(=O)c3cccn3c3cccnc32)c1 -10.9%
